Experimental findings from PubChem BioAssay (NCI) are described below.

The structures appear in SMILES notation. “And” between values parts separate entries of the source, which are not always exact repeats. Identical values can stand only once.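 Cultured in 96-well plates, cells were exposed to test compound for 48 hours across five concentrations. The concentration for 50% growth inhibition is given as GI50. TGI: concentration producing complete growth inhibition.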

The assay relates to NCI-H322M lung. In words: NCI anticancer screen, dose series, 48 h.

Consider `O=C1/C(=C/c2ccccc2)CCc2ccccc21`, for which the TGI turned out to be 29.3 µM.
Same read-out and setting: with `O=S(=O)(NC1OCCCC1I)c1ccccc1` (stereo not given) the figure was more than 100 µM; with `Cc1cc(=O)[nH]c(/N=C(\N)Nc2ccc(Cl)cc2)n1`, more than 100 µM; with `COc1ccc(CCNC(=O)CCc2ccccc2CO)cc1OC`, more than 100 µM.
The same measure, in the same setting: with `COc1cc2c(cc1OCCCCCCCCN1C(=O)c3cccc4cccc(c34)C1=O)N=C[C@@H]1CCCN1C2=O` the figure was 69.5 µM; with `COC(=O)C1N=CSCC1(C)O` (stereo not given), more than 100 µM; with `CC1(C)N=C(C(=O)c2ccccc2)N(O)C1(O)c1ccccc1` (stereo not given), more than 100 µM.
As for `O=[N+]([O-])[O-].O=[N+]([O-])[O-].[Au].[Au].c1ccc([P-]c2ccccc2)cc1.c1ccc([P-]c2ccccc2)cc1`, the GI50 is more than 100 µM and the TGI was more than 100 µM.
For `CC1(C)CCC[C@@]2(C)C1C(=O)[C@@H]1O[C@]1(C)[C@@H]2CO` (stereo not given in full), the TGI is more than 100 µM.
Still for that read-out and setting: with `CC(C)(Oc1ccc2c(=O)cc(-c3ccccc3)oc2c1)C(=O)Nc1c(Cl)cccc1Cl` the figure was more than 100 µM.
As for `C/C1=C/C(=O)O[C@@H]2C[C@@H](CC[C@H](C)/C=C\C=C\CC1)O[C@@](OCCc1ccccc1)([C@@H]1CSC(=O)N1)C2`, the GI50 was 1.39 µM and the TGI was more than 17.5 µM.
As for `Cc1nc2ncn3c(c-2c1Cc1ccccc1)NC=C(O)N3`, the TGI was more than 100 µM.
With `CCOC(=O)N[C@H]1CCc2c(Br)c(OC)c(OC)c(OC)c2-c2ccc(SC)c(=O)cc21`, the GI50 was less than 0.0114 µM and the TGI was more than 75.9 µM.
On the same counts, the results for `COc1cc(/C=C2\CN(S(=O)(=O)c3ccccc3)C/C(=C\c3cc(CN4CCCCC4)c(O)c(OC)c3)C2=O)cc(CN2CCCCC2)c1O` are 1.7 µM and 3.12 µM.
With `O=C(CNc1ncco1)Nc1ccc(S(=O)(=O)c2ccc(NC(=O)CNc3ncco3)cc2)cc1`, the GI50 was 13.4 µM and the TGI is 27.6 µM.
`COc1ccc(N=Nc2ccc3oc(=O)c(C(=O)Nc4ccc(Cl)cc4)cc3c2)cc1` showed a TGI of more than 10 µM.
In turn, `CCCC(=O)OCC1OC(n2cc(F)c(=O)[nH]c2=O)C(F)C1OC(=O)CCC` (stereo not given) registered a TGI of more than 100 µM.
The same measure, in the same setting: with `COc1ccc(NS(=O)c2ccccc2OC)cc1` (stereo not given) the figure was more than 100 µM; with `CCCCCCCCCCCC(=O)c1c(O)cccc1O`, 49.5 µM; with `O=C1CC2(CCC(O)(c3cccs3)C(C(=O)c3cccs3)C2)C(=O)c2ccccc2N1` (stereo not given), more than 100 µM.
Still for that read-out and setting: with `COc1ccc(/C=C(/C)[N+](=O)[O-])cc1` the figure was 8.66 µM.
The molecule `Cc1cc(=O)oc2c3c(ccc12)OC(c1ccc(Br)cc1)CC3=O` (stereo not given) displayed a TGI of 35.3 µM.
For the molecule `Cc1nc2c(n1CCN(C)C)C(=O)c1ccccc1C2=O`, the TGI was determined as 88.3 µM.
Still for that read-out and setting: with `CCCSc1ccc2[nH]c(N3C(=O)/C(=C/c4cc(OC)c(OC)c(OC)c4)N=C3c3ccccc3)cc2c1` the figure was more than 37.5 µM.
Regarding `Nc1ccc2ccc(NS(=O)(=O)N3CCCCC3)cc2c1`, the GI50 is 1.15 µM and the TGI is more than 100 µM.
Turning to `C/C(N=Nc1nc2ccccc2[nH]1)=C1/C=CC=CN1O`, the TGI is more than 100 µM.
In the case of `C[C@]12C3CC[C@@]4(CO)C[C@]3(CCC1[C@](C)(C(=O)O)CC[C@@H]2O)CC4=O` (stereo not given in full), the GI50 was more than 100 µM and the TGI was more than 100 µM.
With `O=C(Nc1ccc(Cl)cc1)c1cc(S(=O)(=O)Nc2nnc(-c3ccccc3)c(-c3ccccc3)n2)c(SCc2ccccc2)cc1Cl`, the GI50 is 20.7 µM and the TGI worked out at 53.6 µM.
In the case of `O=[N+]([O-])c1ccc(/C=C(/c2ccc([N+](=O)[O-])o2)S(=O)(=O)c2ccccc2)o1`, the TGI turned out to be 52.4 µM.
Still for that read-out and setting: with `O=c1[nH]c(Nc2ccc(Cl)cc2)nc2nc[nH]c12` the figure was more than 100 µM.
With `O=C1C(=O)c2ccccc2C(O)=C1CC=C(Cl)Cl`, the GI50 was 12.3 µM and 17 µM; the TGI was > 77.9 µM and 211 µM and > 100 µM.
Molecule `CC(=O)OC1CCC2(C)C(=CCC3C4CCC5(OC6CC(C)CN(C(C)=O)C6C5C)C(C)=C4C(=O)C32)C1` (stereo not given) registered a TGI of 41 µM.
On the same count and under the same terms, with `O=C(O)C(O)C(O)C(O)C(=O)CO` (stereo not given) the figure was more than 100 µM.
Still for that read-out and setting: with `CN(C)CC1(Cc2ccccc2)CCC(Cc2ccccc2)C1=O` (stereo not given) the figure was 31.4 µM; with `CCCCCCCCCCCCn1[nH]c(C)c(C(=S)SCCCCCCCC)c1=O`, more than 100 µM; with `COc1cc2ccc1OCc1cccc(n1)COc1ccc(cc1OC)C=Nc1ccc(cc1)-c1ccc(cc1)N=C2`, more than 100 µM.
Same read-out and setting: with `COc1ccc(C(=O)N(C(=O)N2CCN(c3ccccc3)CC2)S(=O)(=O)c2ccccc2)cc1` the figure was more than 100 µM; with `BrC1=CC=C2NCCCCCCN=C3C=CC(Br)=CC=C3NCCCCCCN=C2C=C1`, more than 25.5 µM; with `O[C@H]1[C@H]2[C@H](O)C[C@H](CCOCc3ccccc3)CN2C[C@H]1O`, more than 100 µM.
For the molecule `Cc1ccc2c(c1)O/C(=C\c1ccc([N+](=O)[O-])o1)C2=O`, the GI50 is 4.95 µM and the TGI is 54.5 µM.
On to `O=C1CCCCCC1CC(Sc1ccccc1)Sc1ccccc1` (stereo not given), for which the TGI was more than 100 µM.
As for `CC1C=C[C@H](Sc2ccccc2)CC[C@@]1(C)O` (stereo not given in full), the TGI is more than 100 µM.
On the same count and under the same terms, with `C/C(=N\Nc1nc2ccccc2o1)c1cc(C)ncn1` the figure was more than 84.2 µM.
Regarding `COC(=O)c1nc(-c2nc(CCNC(=O)OC(C)(C)C)sc2Cl)sc1Cl`, the TGI was more than 100 µM.
Consider `Cc1ccc(CC(Cc2ccc(C)cc2C(=O)O)C(=O)O)cc1` (stereo not given), for which the TGI is more than 100 µM.
As to `NC(=S)N/N=C\c1nccc2c(N)cccc12`, the GI50 was 0.328 µM.
As for `N#C/C(N)=C(\C#N)N=Cc1csc2ccccc12`, the GI50 is 41 µM and the TGI was more than 100 µM.
The molecule `CNC(=O)CNC(=O)C(Cc1ccc(NC(=O)CCCCC(C)=O)cc1)NC(=O)C(CCC(=O)OCc1ccccc1)NC(=O)OC(C)(C)C` (stereo not given) had a TGI of more than 100 µM.
The same measure, in the same setting: with `Cc1cccc(C)c1NC(=O)CCC(=O)NC(N)=S` the figure was more than 100 µM.
